The list shows a part of the results. Single values of this set are uncertain. Values with irradiation are relative to irradiated vehicle.
Assays:
A549-Dual [1] = test: NF-kB reporter (SEAP) activity, viability-corrected, relative to vehicle (fold change vs vehicle); higher = more activation of STING-IRF / NF-kB immune response reporter; settings: 10 µM
A549-Dual [2] = test: ISRE reporter (Lucia luciferase) activity, viability-corrected, relative to vehicle (fold change vs vehicle); higher = more activation of STING-IRF / NF-kB immune response reporter; settings: 10 µM
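Throughout, for NF-kB reporter (SEAP) activity, viability-corrected, relative to vehicle: viability correction based on the alamar blue assay, with concentrations leaving 10% survival or less dropped.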

SMILES	NF-kB reporter (A549-Dual [1]; irradiation: 8 Gy/4 fr)	NF-kB reporter (A549-Dual [1]; irradiation: none)	ISRE reporter (A549-Dual [2]; irradiation: 8 Gy/4 fr)	ISRE reporter (A549-Dual [2]; irradiation: none)
CCOc1nc2cccc(C(=O)OCc3oc(=O)oc3C)c2n1Cc1ccc(-c2ccccc2-c2nc(=O)o[nH]2)cc1 [Azilsartan Medoxomil]	0.585	1.06	0.493	0.498
Cc1cc(NS(=O)(=O)c2ccc(N)cc2)nc(C)n1 [sulfaisodimidine]	0.811	0.899	0.768	0.751
Nc1ncnc2c1ncn2C1OC(CO)C(O)C1O.O (stereo not given) [Vidarabine monohydrate]	0.784	1.35	0.797	1.4
CC(C)(C)NCC(O)COc1ccccc1C1CCCC1.CC(C)(C)NCC(O)COc1ccccc1C1CCCC1.O=S(=O)(O)O (stereo not given) [Penbutolol Sulfate]	0.676	0.906	0.56	0.689
Cc1cc(C)cc(OCC2CNC(=O)O2)c1 (stereo not given) [Metaxalone]	0.623	1.07	0.656	0.589
CN(C)CCCN1c2ccccc2CCc2ccc(Cl)cc21.Cl [Clomipramine HCl]	0.619	0.858	0.617	1
CCCN1CCCCC1C(=O)Nc1c(C)cccc1C.Cl (stereo not given) [Ropivacaine HCl]	0.938	1.06	1.09	0.854
CC1CC2C3CC(F)C4=CC(=O)C=CC4(C)C3(F)C(O)CC2(C)C1(O)C(=O)CO (stereo not given) [Flumethasone]	0.284	0.602	0.0659	0.194
CCCNC1CCc2nc(N)sc2C1.Cl.Cl.O (stereo not given) [Pramipexole 2HCl Monohydrate]	0.771	0.76	0.658	0.606
Cl.Cl.O=C1c2c(O)ccc(O)c2C(=O)c2c(NCCNCCO)ccc(NCCNCCO)c21 [Mitoxantrone 2HCl]	4.53	7.33	0.297	1.12
OCC1OC(OC2OC=CC3C(O)C4OC4(CO)C23)C(O)C(O)C1O (stereo not given) [Catalpol]	1.14	0.777	0.919	0.679
CCCc1nc(C(C)(C)O)c(C(=O)OCc2oc(=O)oc2C)n1Cc1ccc(-c2ccccc2-c2nn[nH]n2)cc1 [Olmesartan Medoxomil]	0.655	1.01	0.688	0.9
CC(=O)Oc1cc(C)c(OC(C)=O)c2ccccc12 [Menadiol Diacetate]	0.322	0.6	0.144	0.217
C#CCNC1CCc2ccccc21.CS(=O)(=O)O (stereo not given) [Rasagiline Mesylate]	0.717	1.01	0.724	0.757
COc1ccc2cc3[n+](cc2c1OC)CCc1cc2c(cc1-3)OCO2.O=S(=O)([O-])O [Berberine Sulfate]	0.55	1.33	0.168	0.676
CC1OC(O)C(O)C(O)C1O.O [L-(+)-Rhamnose Monohydrate]	0.921	0.488	0.894	0.516
Oc1ccc(Cl)c2cccnc12 [Cloxiquine]	0.957	1.37	0.153	0.313
O=C(O)C(O)Cc1ccc(O)c(O)c1 (stereo not given) [Danshensu]	0.977	1.41	0.72	0.925
CC(COc1ccccc1)NC(C)C(O)c1ccc(O)cc1.Cl (stereo not given) [Isoxsuprine hydrochloride]	0.739	1.27	0.897	1.13
CCCN(CCC)S(=O)(=O)c1ccc(C(=O)O)cc1 [Probenecid]	0.913	0.673	0.742	0.664
COc1c(N2CC3CCCNC3C2)c(F)cc2c(=O)c(C(=O)O)cn(C3CC3)c12.Cl (stereo not given) [Moxifloxacin HCl]	0.812	0.972	0.744	0.904
CC1CCC2(C(=O)OC3OC(COC4OC(CO)C(OC5OC(C)C(O)C(O)C5O)C(O)C4O)C(O)C(O)C3O)CCC3(C)C(=CCC4C5(C)CC(O)C(O)C(C)(CO)C5C(O)CC43C)C2C1C (stereo not given) [Madecassoside]	0.959	1.18	1.06	1.35
COC(=O)C1=C(C)NC(C)=C(C(=O)OCCN(C)Cc2ccccc2)C1c1cccc([N+](=O)[O-])c1 (stereo not given) [Nicardipine]	0.756	0.919	0.794	1.18
C=CCc1ccccc1OCC(O)CNC(C)C.Cl (stereo not given) [Alprenolol hydrochloride]	0.88	1.03	0.718	0.72
OCC1OC(OC2C(CO)OC(O)C(O)C2O)C(O)C(O)C1O [D-(+)-Cellobiose]	0.751	0.756	0.788	0.688
O=C(O)[C@H](O)c1ccccc1 [(R)-(-)-Mandelic acid]	1.11	1.16	1.09	1.3
CC(=O)OC1Cc2ccccc2N(C(N)=O)c2ccccc21 (stereo not given) [Eslicarbazepine Acetate]	0.774	1.08	0.745	0.779
O=c1ccc2ccccc2o1 [Coumarin]	0.859	1.32	0.724	0.761

SMILES	NF-kB reporter (A549-Dual [1]; irradiation: 8 Gy/4 fr)	NF-kB reporter (A549-Dual [1]; irradiation: none)	ISRE reporter (A549-Dual [2]; irradiation: 8 Gy/4 fr)	ISRE reporter (A549-Dual [2]; irradiation: none)
CC1COc2c(C3(N)CC3)c(F)cc3c(=O)c(C(=O)O)cn1c23.CS(=O)(=O)O (stereo not given) [Pazufloxacin mesylate]	0.764	0.953	0.769	0.709
CC1(O)CCC(C(C)(C)O)CC1.O (stereo not given) [Terpin hydrate]	0.96	1.3	1.09	0.877
NCCS [2-Aminoethanethiol]	0.709	0.624	0.738	0.488
CCN(CC)C(=S)SSC(=S)N(CC)CC [Disulfiram]	0.642	0.793	0.8	1.01
COc1ccc(CC(C)NCC(O)c2ccc(O)c(NC=O)c2)cc1.COc1ccc(CC(C)NCC(O)c2ccc(O)c(NC=O)c2)cc1.O=C(O)/C=C/C(=O)O (stereo not given) [Formoterol Hemifumarate]	0.649	0.767	0.981	0.918
Cc1ccccc1C(OCCN(C)C)c1ccccc1.Cl (stereo not given) [Orphenadrine Hydrochloride]	1.15	0.783	1.38	0.964
CCCC(=O)OC1(C(=O)COC(C)=O)CCC2C3CC(F)C4=CC(=O)C=CC4(C)C3(F)C(O)CC21C (stereo not given) [Difluprednate]	0.355	0.742	0.069	0.221
O=c1[nH]c2ccccc2n1CCN1CCN(c2cccc(C(F)(F)F)c2)CC1 [Flibanserin]	0.443	0.719	0.627	1.03
Cc1ccc(C(=O)C(C)CN2CCCCC2)cc1.Cl (stereo not given) [Tolperisone HCl]	1.04	1.38	1.03	1.09
CN(C)CCC=C1c2ccccc2C(C)(C)c2ccccc21.Cl [Melitracen hydrochloride]	0.415	0.439	0.458	1.17
COC1/C=C/OC2(C)Oc3c(C)c(O)c4c(O)c(c(/C=N/N5CCN(C)CC5)c(O)c4c3C2=O)NC(=O)/C(C)=C/C=C/C(C)C(O)C(C)C(O)C(C)C(OC(C)=O)C1C (stereo not given) [Rifampin]	0.991	1.04	1.03	0.83
NCCCCCC(=O)O [(6-)ε-Aminocaproic acid]	0.8	1.17	0.698	0.941
OCC1OC(O)C(O)C(O)C1O [D-Galactose]	0.807	1.02	0.915	0.823
Cl.O=C(Nc1ccccc1)OCC(CN1CCCCC1)OC(=O)Nc1ccccc1 (stereo not given) [Diperodon HCl]	0.976	0.746	0.939	0.725
COC12C(COC(N)=O)C3=C(C(=O)C(C)=C(N)C3=O)N1CC1NC12 (stereo not given) [Mitomycin C]	1.81	3.15	0.387	1.91
CC1=CCC2CC1C2(C)C [(1S)-(-)-α-Pinene]	0.903	0.786	0.793	0.566
CC(=O)OC1CC2(C)C(CC(O)C3C4(C)CCC(O)C(C)C4CCC32C)/C1=C(\CCC=C(C)C)C(=O)[O-].[Na+] (stereo not given) [Fusidate Sodium]	0.953	1.01	0.986	0.967
O=c1cc(-c2ccccc2)oc2ccccc12 [Flavone]	0.608	0.994	0.305	0.53
CCCCOc1cc(C(=O)NCCN(CC)CC)c2ccccc2n1.Cl [Dibucaine HCl]	0.664	1.18	0.713	1.56
CC(=O)[O][K] [Potassium acetate]	0.862	1	0.927	0.958
Nc1nc(NC2CC2)c2ncn(C3C=CC(CO)C3)c2n1 (stereo not given) [Abacavir]	0.676	0.862	0.621	0.644
CC(C)N1CCN(c2ccc(OCC3COC(Cn4cncn4)(c4ccc(Cl)cc4Cl)O3)cc2)CC1 (stereo not given) [Terconazole]	0.818	0.877	0.865	1.77
CC12CCC3c4ccc(O)cc4CCC3C1CC(O)C2O (stereo not given) [Estriol]	1	1.02	0.781	0.807
C/C=C/c1ccc(O)c(OC)c1 [Isoeugenol]	1.16	0.439	0.989	0.414
C=CC1=C(C(=O)O)N2C(=O)C(NC(=O)/C(=N\O)c3csc(N)n3)C2SC1 (stereo not given) [Cefdinir]	0.532	1.02	0.564	0.751
Nc1ccc(S(=O)(=O)[N]([Na])c2cnc3ccccc3n2)cc1 [Sulfaquinoxaline sodium]	0.964	1.18	1.02	1.34
COc1cc(C(=O)O)ccc1O [Vanillic acid]	0.878	0.63	0.925	0.721

Source: the supplement of paper PMC9174493
